The whole screen tested about 48,000 compounds, of which about 550 (1.1%) were called active. Not shown: some 4% with an inconclusive outcome. Cut-off read from the data, not from the text of the source: active = potency below about 15 µM; inconclusive = mostly about 16 µM to 33 µM; inactive = weaker than that. The list shows a part of the results.
Target: Lysosomal acid glucosylceramidase (Homo sapiens) (UniProt P04062)
Experiment: Glucocerebrosidase;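 note: the screen sought inhibitors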
Details: purified enzyme, resorufin glucoside fluorescence (screen aimed at inhibitors), 20 min
Method in brief: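 Compounds titrated against 0.2 nM normal enzyme, 30 uM resorufin beta-D-glucopyranoside substrate, citrate/phosphate buffer with taurocholate and tween-20, pH 5.9. Reaction ran 20 min at room temperature; fluorescence (Ex 548/Em 600) gave AC50.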
Potency is the fitted concentration of half-maximal effect.

UniProt P04062, sequence (P04062 whole entry, looked up): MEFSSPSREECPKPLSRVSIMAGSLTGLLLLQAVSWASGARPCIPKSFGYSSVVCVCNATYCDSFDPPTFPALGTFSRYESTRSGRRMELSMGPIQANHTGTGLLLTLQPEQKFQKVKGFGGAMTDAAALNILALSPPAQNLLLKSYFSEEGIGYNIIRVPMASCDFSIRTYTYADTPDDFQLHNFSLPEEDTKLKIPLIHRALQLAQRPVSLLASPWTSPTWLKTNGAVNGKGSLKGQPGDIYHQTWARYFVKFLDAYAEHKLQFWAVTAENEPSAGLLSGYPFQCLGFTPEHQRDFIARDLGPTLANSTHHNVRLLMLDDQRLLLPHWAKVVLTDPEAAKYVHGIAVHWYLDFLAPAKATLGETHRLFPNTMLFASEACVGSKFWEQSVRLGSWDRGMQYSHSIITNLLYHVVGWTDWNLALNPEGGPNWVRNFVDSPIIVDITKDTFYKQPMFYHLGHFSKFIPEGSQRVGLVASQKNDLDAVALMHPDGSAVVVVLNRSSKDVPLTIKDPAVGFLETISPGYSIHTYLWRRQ

Potency, inactive:
Cc1ncc(CSc2nnnn2-c2ccccc2)c(N)n1 > 76.9 µM
Cc1ccc(-c2csc3ncnc(-n4nc(C)cc4N)c23)cc1 > 76.9 µM
CN(C)/C=C/c1c(C#N)c(=O)ncn1Cc1ccccc1 > 76.9 µM
COc1ccc(OC)c(C(=O)CN2C(=O)NC(C)(c3ccccc3)C2=O)c1 (stereo not given) > 76.9 µM
N#CNC1=NCN(Cc2ccccc2)CN1 > 76.9 µM
CN1CCC2(CC1)NC(=O)NC2=O > 76.9 µM
COc1ccc2c(Cl)c(-c3nnco3)sc2c1 > 76.9 µM
CCOC(=O)c1cc2sccc2n1CC(=O)N1CCCc2ccccc21 > 76.9 µM
Cc1nc(N2CCCC2)c2nnn(Cc3ccccc3Cl)c2n1 > 76.9 µM
O/N=C1/CCCCC1c1ccccn1 (stereo not given) > 76.9 µM
CCn1ccc(C(=O)Oc2ccc(C(C)C)cc2)n1 > 76.9 µM
CC(=O)c1c(C)[nH]c(C(=O)CSc2nnc(CN3CCCCCC3=O)n2-c2ccccn2)c1C > 76.9 µM
O=S(=O)(NC1CC2CCC1C2)c1ccc(Br)s1 (stereo not given)
O=C(Oc1nsnc1N1CCOCC1)N1CCOCC1 > 76.9 µM
CC(C)(C)C(=O)C(Oc1cccc2nonc12)n1cncn1 (stereo not given) > 76.9 µM
C=CCSc1nnc(NC(=O)CSc2ccccn2)s1 > 76.9 µM
CN(C)C(CNC(=O)C1CCCN(C(=O)c2ccc(Cl)cc2)C1)c1ccco1 (stereo not given) > 76.9 µM
COc1ccc(N2CCN(CC(=O)Nc3c(C)cc(C)cc3C)CC2)cc1 > 76.9 µM
C=CCOc1ccc(/C(O)=C2/C(=O)C(=O)N(CCN3CCOCC3)C2c2ccc(C)cc2)cc1 (stereo not given) > 76.9 µM
COc1c(F)c(F)c(C(=O)Nc2cccc(Cl)c2N2CCOCC2)c(F)c1F > 76.9 µM
CCc1nc(OCc2ccco2)c2sc3nc4c(cc3c2n1)COC(C)(C)C4 > 76.9 µM
CCNC(=O)C1CCN(S(=O)(=O)c2ccc(F)cc2)CC1 > 76.9 µM
CC(C(=O)OCc1nnc(-c2ccccc2)o1)N1C(=O)c2ccccc2C1=O (stereo not given) > 76.9 µM
CC(=O)Nc1cccc(NC(=O)c2sc3ncn(CC(=O)N4CCCCC4)c(=O)c3c2C)c1
CCc1nnc(NC(=O)CSc2nnc(-c3ccco3)n2CC)s1 > 76.9 µM
Cc1nnc(SCCC(=O)Nc2nc(-c3ccccc3)ns2)s1 > 76.9 µM
Nc1nc(SCC(=O)NCc2ccccc2)n[nH]1 > 76.9 µM
Cn1c(SCc2ccccc2)nnc1-c1ccc2c(c1)OCO2 > 76.9 µM
Cc1ccc(S(=O)(=O)N2C(=O)CCC2C(=O)N2CCN(C)CC2)cc1 (stereo not given) > 76.9 µM
COc1cccc(CNc2ccc(N3CCCCC3)cc2)c1OC > 76.9 µM
O=P(C1=C(N2CCOCC2)/C(=C\c2ccccc2)CC1)(N1CCOCC1)N1CCOCC1 > 76.9 µM
Cc1cccc(N2CCN(C(=O)c3ccncc3)CC2)c1C > 76.9 µM
CCCOc1cccc(C(=O)N(Cc2cccs2)C2CCS(=O)(=O)C2)c1 (stereo not given) > 76.9 µM
O=C(CSc1nc2ccccc2o1)N1CCN(c2ccccc2)CC1 > 76.9 µM
COc1ccccc1-c1cc(C(F)(F)F)nc(N2CCN(c3ccc(F)cc3)CC2)n1 > 76.9 µM
CCN(CC)S(=O)(=O)c1ccc(Nc2nc3ccccc3n3nnnc23)cc1 > 76.9 µM
COc1ccc(-c2nnc3sc(-c4ccc(Br)o4)nn23)cc1OC > 76.9 µM
CCNc1nc(NC(C)(C)C)nc(N(CC)n2cnnc2)n1 > 76.9 µM
CCc1cc(C(=O)OC)c(NC(=O)CC2NCCNC2=O)s1 (stereo not given) > 76.9 µM
CNC(=O)c1ccccc1-c1ccccc1 > 76.9 µM
COc1ccc(-c2cn3cccnc3n2)cc1NC(=O)CC(C)C > 76.9 µM
Cc1ccc(OCc2ccoc2C(=O)O)cc1C > 76.9 µM
Cc1cc(C(=O)Cn2nnc(-c3ccc(Cl)cc3)n2)c(C)n1CC1CCCO1 (stereo not given) > 76.9 µM
CSc1cccc(NC(=O)C2CCN(S(C)(=O)=O)CC2)c1 > 76.9 µM
COc1ccccc1Cn1c(=O)c2ccccc2n2c(SCc3csc(C)n3)nnc12 > 76.9 µM

Source: PubChem BioAssay AID360 (National Center for Advancing Translational Sciences (NCATS), 2006)
